Measured values reported in PubChem BioAssay AID488969 (Vanderbilt High Throughput Screening Facility, 2010).
The full ranking holds about 110,000 compounds; the median of “z-score” is about -0.1, and the highest 2% start at about 2. Some of the results follow. Activity calls are given as the source filed them.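 How the source made its calls: active means z-score in the third read window above 3 or below -3; inactive means the rest.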

Target: Metabotropic glutamate receptor 8 (Rattus norvegicus) (UniProt P70579)
Experiment: rat mGluR8 modulators via GIRK flux, primary screen, cell-based, thallium flux, HTS (AID 488969)
Details: HEK293 rat mGluR8, GIRK (G protein-gated inwardly rectifying potassium channel) thallium flux, FluoZin2; at 10 µM; stronger effect = higher value; submaximal glutamate (EC20) added with thallium

Chain of UniProt P70579 (P70579 whole entry, looked up): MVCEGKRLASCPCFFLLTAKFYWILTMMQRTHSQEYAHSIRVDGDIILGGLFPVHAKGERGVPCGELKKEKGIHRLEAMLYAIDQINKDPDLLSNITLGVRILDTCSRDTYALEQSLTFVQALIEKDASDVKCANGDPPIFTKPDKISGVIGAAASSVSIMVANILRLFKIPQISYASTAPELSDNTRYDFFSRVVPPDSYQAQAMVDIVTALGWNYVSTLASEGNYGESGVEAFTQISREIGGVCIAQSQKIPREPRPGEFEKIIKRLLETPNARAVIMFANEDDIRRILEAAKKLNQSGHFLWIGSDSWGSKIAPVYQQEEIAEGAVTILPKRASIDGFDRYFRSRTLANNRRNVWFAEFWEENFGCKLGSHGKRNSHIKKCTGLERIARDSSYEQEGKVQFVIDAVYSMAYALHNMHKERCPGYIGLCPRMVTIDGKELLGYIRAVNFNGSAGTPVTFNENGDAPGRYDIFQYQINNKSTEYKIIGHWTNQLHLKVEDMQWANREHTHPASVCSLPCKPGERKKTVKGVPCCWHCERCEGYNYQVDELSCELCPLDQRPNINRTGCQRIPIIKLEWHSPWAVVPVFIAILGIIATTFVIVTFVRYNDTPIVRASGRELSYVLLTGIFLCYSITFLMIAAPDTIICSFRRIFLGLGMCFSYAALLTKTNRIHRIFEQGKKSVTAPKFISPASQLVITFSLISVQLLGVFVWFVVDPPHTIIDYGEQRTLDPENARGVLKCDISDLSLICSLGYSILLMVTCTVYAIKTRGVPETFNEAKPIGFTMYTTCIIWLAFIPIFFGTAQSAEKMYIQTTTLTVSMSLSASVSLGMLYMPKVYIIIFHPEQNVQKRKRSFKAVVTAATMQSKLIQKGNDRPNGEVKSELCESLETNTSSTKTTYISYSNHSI

| SMILES | z-score |
| --- | --- |
| O=C(Cc1nc2ccccc2[nH]1)NCc1ccco1 | 0.75 |
| Cc1cc(C)n2nc3ccccc3c2n1 | -0.00936 |
| COc1ccc(COC(=O)NNC(=O)c2ccc(OC)cc2)cc1 | -0.0393 |
| C/C(=N/NC(=O)c1ccc(Cl)s1)c1ccc(NC(=O)COc2ccc(Cl)cc2)cc1 | -0.207 |
| CC(=O)c1cc(-c2ccccc2)[nH]c1N1CCOCC1 | -0.141 |
| CCOC(=O)n1c(=O)n(Cc2ccc(Cl)cc2Cl)c2ccccc21 | -0.103 |
| O=C(NC(c1ccccc1)c1ccccc1)C1(c2cccs2)CCOCC1 | 0.325 |
| COc1ccnc(CSC(N)=Nc2ccccc2OC)c1 | -0.21 |
| CCCCNC(=O)C1(c2ccc(OC)cc2)CCOCC1 | -0.117 |
| CC(C)C(C(=O)Nc1ccccc1)N1C(=O)c2ccccc2C1=O (stereo unspecified) | -0.45 |
| CCC(C)NC(=O)CSc1nc2ccsc2c(=O)n1NC(=O)c1ccccc1 (stereo unspecified) | -0.265 |
| CCSc1nnc(CNC(=O)C23CC4CC(CC(C4)C2)C3)n1Cc1ccccc1 | -0.373 |
| Cc1ccccc1NS(=O)(=O)c1ccc(NC(=O)CSCc2ccc(Br)cc2)cc1 | -0.00415 |
| O=C(Nc1ccccc1-c1nc2ccccc2s1)c1ccco1 | -0.0204 |
| CCOC(=O)c1sc(NC(=O)C2CC2)cc1C | -0.273 |
| CCc1c(C(C)S(=O)(=O)c2ccc(C)cc2)[nH]c(=O)n1-c1ccc(OC(F)(F)F)cc1 (stereo unspecified) | -0.165 |
| C/C(=N\NC(=O)CC(C)C)c1ccc(N2CCCCC2)cc1 | -0.188 |
| CC(NC(=O)COC(=O)[C@@H]1CCCN1S(=O)(=O)c1ccccc1F)C12CC3CC(CC(C3)C1)C2 (stereo partly specified) | -0.122 |
| O=C(N/N=C1\CCCc2ccccc21)c1ccc([N+](=O)[O-])cc1Cl | -0.814 |
| COc1ccc(NC(=O)c2cccc(OC(F)F)c2)cc1Cl | -0.169 |
| Cc1ccc(/C=C(\NC(=O)c2ccccc2)C(=O)OCc2ccccc2)cc1 | -0.446 |
| CCCNC(=O)c1ccccc1NC(=O)c1ccc(CSc2ccccc2)cc1 | 0.0178 |
| Cc1ccc(S(=O)(=O)/N=C(/c2ccc(F)cc2)N2CCCCC2)cc1 | -0.248 |
| COc1ccccc1-c1nc(C#N)c(N2CCCCCC2)o1 | -2.54 |

| SMILES | z-score |
| --- | --- |
| COc1cc(NC(=O)C2CC2C)c(C(=O)O)cc1OC (stereo unspecified) | -0.191 |
| CC1CCCC(C)N1S(=O)(=O)c1ccc(S(=O)(=O)NCc2ccccc2)cc1 (stereo unspecified) | 0.891 |
| COC(=O)c1ccc(CSc2nnc(CNC(=O)c3ccc(OC)cc3)o2)o1 | 0.0897 |
| COc1ccc(CCNc2nc(N3CCOCC3)nc(N3CCOCC3)n2)cc1OC | 0.342 |
| CCC(C)(c1nnnn1-c1c(C)cccc1C)N(N=O)c1ccccc1Cl (stereo unspecified) | -0.506 |
| CC(C)(C)C1CCC(C(=O)OCC(=O)N2CCOCC2)CC1 (stereo unspecified) | 0.199 |
| N#Cc1c(/N=C/C=C/c2ccccc2)sc2c1CCCC2 | 0.972 |
| CCNc1oc(-c2cccc3ccccc23)nc1C#N | -0.357 |
| Cc1ccccc1N(CC(=O)NCCc1ccccc1)C(=O)c1ccc(N2CCCC2)nc1 | -0.219 |
| O=C(O)[C@H]1CCCC[C@H]1C(=O)NCCNC(=O)[C@@H]1CCCC[C@@H]1C(=O)O | -0.0826 |
| O=C(CSc1nnc(-c2ccccc2)c(-c2ccccc2)n1)Nc1ncc(Cl)cc1Cl | 0.143 |
| O=C(CCS(=O)(=O)c1ccccc1)Nc1nc2c(s1)CCCC2 | -0.0589 |
| CC(OC(=O)c1cccs1)C(=O)Nc1nc(-c2ccccc2)cs1 (stereo unspecified) | -0.103 |
| COc1cccc(NC(=O)CC2C(=O)NC3CCCCC3N2C(=O)c2ccc(F)cc2)c1 (stereo unspecified) | -0.153 |
| O=C(COc1ccccc1Cl)NCCCN1CCOCC1 | 1.3 |
| c1ccc(-c2nnc(N3CCOCC3)nc2-c2ccccc2)cc1 | -0.818 |
| O=C(COC(=O)c1cccc([N+](=O)[O-])c1)c1ccc(OCc2ccccc2)cc1 | -0.231 |
| C=CCOC(=O)C1=C(C)NC(=S)NC1/C=C/c1ccccc1 (stereo unspecified) | 0.0399 |
| O=C(Nc1ccccc1)N(C1=NCCC1)c1ccc(OC(F)F)cc1 | 0.321 |
| Cc1ccc(NN2C(=O)C=CC2=O)cc1 | -0.674 |
| c1cn2cc(CSC3CCCCC3)nc2s1 | -0.102 |
| O=C(NC(=S)N1CCN(Cc2ccccc2)CC1)c1ccccc1 | active: 6.31 |
| O=[N+]([O-])c1ccc(CN2CCCCCC2)s1 | -0.0604 |
| O=C(NCc1ccco1)c1cnc2sccn2c1=O | -0.0632 |

| SMILES | z-score |
| --- | --- |
| COc1ccc(NC(=O)C2(c3ccc(NC(=O)c4ccc(C)cc4)cc3)CCCC2)cc1 | -0.11 |
| Cc1cc(C)c(NC(=O)C2CCCN2CCOC(=O)c2ccccc2)c(C)c1 (stereo unspecified) | 0.259 |
| COc1cccc(C(=O)Cn2c(NCCO)nc3ccccc32)c1 | -0.516 |
| COc1cc(/C=C/C(=O)N(C)c2ccccc2C(=O)O)cc(OC)c1OC | -0.0676 |
| CC(C)(C)C(=O)Cn1c(NCCCO)nc2ccccc21 | -0.106 |
| COc1ccc(C(=O)NCc2ccccc2OC)cc1 | 0.71 |
| O=c1c2c(nc3c(-c4cccc(Br)c4)c[nH]n13)CCCC2 | active: 6.35 |
| O=C(COC(=O)C12CC3CC(CC(C3)C1)C2)NCc1ccco1 | -0.0397 |
| CCOC(=O)C1C(=O)CC(C)(O)C(C(=O)OCC)C1c1cc(Br)ccc1OC (stereo unspecified) | -0.151 |
| CCN(CC)c1ccc(C(=O)N/N=C(\C)c2ccc(OC)c(OC)c2)cc1 | 0.585 |
| COc1ccc(N2C(=O)CC(NC3CCCCNC3=O)C2=O)cc1 (stereo unspecified) | 0.287 |
| Cc1cc(C)c2c(-n3cccc3)nn(C)c2n1 | -0.0664 |
| CCOc1ccccc1NC(=O)CSc1nnc(-c2ccccn2)n1Cc1ccco1 | active: -3.11 |
| CCOc1ccc2nc(SC3CC(=O)N(c4cccc(OC)c4)C3=O)sc2c1 (stereo unspecified) | 0.642 |
| COC(=O)c1c(NC(=O)COC(=O)c2ccc(Cl)cc2[N+](=O)[O-])sc2c1CCCCC2 | -0.191 |
| COc1ccc(S(=O)(=O)Nc2cc(C)ccn2)cc1 | -0.11 |
| CN1/C(=C\C(=O)CSc2nncn2C)C(C)(C)c2ccccc21 | -0.00813 |
| COc1ccc(C2=NOC3(CC(=O)N(c4ccc(C)cc4)C3=O)C2)c(OC)c1 (stereo unspecified) | 0.85 |
| CCN(c1ccc(NC(=O)COC(=O)c2ccc3ccccc3n2)cc1)C(C)C | -0.386 |
| CCOc1cc(/C=C2/SC(=Nc3ccccc3)N(Cc3cccnc3)C2=O)ccc1OCC#N | 0.0194 |
| COc1ccc(C(C)=O)cc1CSc1nc2cc(Cl)ccc2o1 | 0.00484 |
| C/C(=N\Nc1nc(C)cc(=O)[nH]1)C1CC1 | -0.013 |
| CC1=NN(c2ccc(C(=O)OC(C)C)cc2)C(=O)/C1=C\C=C\c1ccco1 | -0.0494 |
